From PubChem BioAssay AID1476 (National Center for Advancing Translational Sciences (NCATS), 2009)
Several values for one entry are separate records, joined by “and”; a condition that tells them apart may be missing. Equal entries are not always repeated. Hit rate of the full screen: of about 200,000 compounds, about 4,500 (2.2%) were called active. This list was built around the results that the source calls inconclusive (neither active nor inactive); the mix of calls is not that of the screen. The call rests on the fitted dose curve; in most records, active means well fitted inhibition curve with a large enough effect; inconclusive means small, poorly fitted or top-dose-only effect, or effect the other way; inactive means flat fitted curve, though single readings scatter. A potency beside an inconclusive call is a rough fit, not a confirmed value.

molecular target: Cruzipain (Trypanosoma cruzi) (UniProt P25779); test: qHTS Assay for Promiscuous and Specific Inhibitors of Cruzain (without detergent); conditions: purified cruzain, Z-FR-AMC fluorescence, no detergent; further: nearly all actives have a fitted effect of over 40% in size;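 on max response, negative = inhibition: plate controls were enzyme without inhibitor for no effect and buffer without enzyme for full effect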
Sequence of UniProt P25779 (P25779 whole entry, looked up): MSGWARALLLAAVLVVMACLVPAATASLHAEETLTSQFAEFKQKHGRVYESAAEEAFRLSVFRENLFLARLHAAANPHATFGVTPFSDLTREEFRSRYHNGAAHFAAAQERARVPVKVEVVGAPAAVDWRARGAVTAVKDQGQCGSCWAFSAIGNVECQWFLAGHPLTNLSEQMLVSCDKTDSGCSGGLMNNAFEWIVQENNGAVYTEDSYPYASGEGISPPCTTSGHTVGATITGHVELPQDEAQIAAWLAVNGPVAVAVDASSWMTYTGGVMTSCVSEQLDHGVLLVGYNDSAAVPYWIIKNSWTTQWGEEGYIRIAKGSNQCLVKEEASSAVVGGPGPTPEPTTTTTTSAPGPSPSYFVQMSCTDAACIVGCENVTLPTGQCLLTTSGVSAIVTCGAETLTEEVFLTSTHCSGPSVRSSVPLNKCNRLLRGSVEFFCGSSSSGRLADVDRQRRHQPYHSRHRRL
How it was run: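 Purified cruzain at 1.5 nM, pre-incubated 15 min with compound at room temperature in 100 mM sodium acetate pH 5.5, 5 mM DTT, 0.00005% Triton X-100. Reaction started with 2 uM Z-FR-AMC; AMC fluorescence increase over 60 s gives rate.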
Potency means the concentration at half of the fitted maximal effect; tags describe the fitted curve by direction and shape.

SMILES | max response, negative = inhibition | Potency
Cc1cc(OI)c(C(C)C)cc1-c1cc(C(C)C)c(OI)cc1C | inactive: -26.8% | 
O=S(=O)(c1ccc(Cl)c(NC(=S)N/N=C/c2c(F)cccc2F)c1)N1CCOCC1 |  | inconclusive: 31.6 µM [inhibitor, single point]
Cc1ccc(NC(=O)c2ccc(N3CCOCC3)c([N+](=O)[O-])c2)cc1S(=O)(=O)N1CCOCC1 |  | inconclusive: 39.8 µM [activator, single point]
Cc1ccc(-n2c(SCC(=O)Nc3cccc(C)c3)nc3c(oc4ccccc43)c2=O)cc1 |  | inconclusive: 10 µM [inhibitor, single point] and inconclusive: 39.8 µM [inhibitor, single point]
CN1CCN(c2nc3c(S(=O)(=O)c4ccccc4)nnn3c3ccsc23)CC1 | inactive: 18.8% | 
COc1ccc2nc(N/C(N)=N/C(=S)Nc3ccc(C)c(C)c3)nc(C)c2c1 |  | active: 12.6 µM
O=C(NCc1ccccc1)C(=O)NCC(c1ccco1)N1CCOCC1 (stereo unspecified) |  | inconclusive: 20 µM [activator, single point]
O=C(NC1CCCCC1)C(c1ccc(F)cc1)N(C(=O)Cc1ccsc1)c1ccc(F)cc1 (stereo unspecified) | inactive: -1.92% | 
CCCN(CCC)C(=O)Cn1c(=O)n(-c2ccc(OC)cc2)c(=O)c2ccc(C(=O)NCc3ccc(C)cc3)cc21 |  | inconclusive: 39.8 µM [activator, single point]
Cc1cc(C(=O)COC(=O)C2=COCCO2)c(C)n1-c1ccc2c(c1)OCO2 | inactive: -14.4% | 
CCOC(=O)C1CCN(C(=O)CN2c3ccc(CC)cc3-c3ccccc3S2(=O)=O)CC1 |  | inconclusive: 39.8 µM [activator, single point]
O=C(Nc1ccc(O)cc1)/C(=C\c1cccs1)NC(=O)c1ccccc1 | inactive: -8.82% | 
CCOC(=O)C1CCN(C(=O)C2CCN(S(=O)(=O)c3cc(Cl)ccc3Cl)CC2)CC1 |  | inconclusive: 39.8 µM [activator, single point]
COc1ccccc1/C=N/NC(=O)c1ccc(Cn2nc([N+](=O)[O-])cc2C)cc1 | inactive: -11.2% | 
COc1ccc(/C=N/n2cc(-c3ccccc3)nc2N)cc1 |  | inconclusive: 31.6 µM [inhibitor, single point]
COc1cccc(-c2csc(N3CCN(C(=S)Nc4ccc(Cl)cc4)CC3)n2)c1 |  | active: 25.1 µM
COC(=O)c1cccc(S(=O)(=O)N(Cc2ccco2)Cc2cc3cc(OC)c(OC)cc3[nH]c2=O)c1 |  | inconclusive: 39.8 µM [activator, single point]
Cc1ccc(C)c(N2CCN(C3=C(c4ccccc4)C(=O)c4ccccc43)CC2)c1 |  | inconclusive: 3.98 µM [inhibitor, partial curve]
CCN(Cc1ccccc1)C(=O)c1cc2c(s1)-c1c(C)cccc1OC2 |  | inconclusive: 39.8 µM [inhibitor, single point]
CC(C)C[C@@H](CC(=O)N[C@H](CC(=O)N[C@@H]1CCCC[C@H]1C(=O)N[C@H](CC(=O)N[C@@H](CCC(=O)O)CC(=O)O)CC(C)C)C(C)C)NC(=O)[C@@H]1CCCC[C@H]1N |  | inconclusive: 25.1 µM [activator, partial curve]
COc1cccc(N2CCN(C(=O)c3cnn(-c4ccc(C)cc4C)c3C3CCN(C(=O)OC(C)(C)C)CC3)CC2)c1 |  | inconclusive: 25.1 µM [activator, partial curve]

SMILES | max response, negative = inhibition | Potency
CCN(CC)c1ccc(/C=N/NC(=O)Cc2nnc(NC(=O)Nc3ccccc3)s2)cc1 |  | inconclusive: 39.8 µM [inhibitor, single point]
CC(=O)OCC(=O)[C@@]12OC3(CCCC3)O[C@@H]1C[C@H]1[C@@H]3CCC4=CC(=O)C=C[C@]4(C)[C@@]3(F)[C@@H](O)C[C@@]12C |  | inconclusive: 25.1 µM [activator, single point]
CCOc1cc(N2CCOCC2)c(OCC)cc1NC(=O)COC(=O)c1ccccc1C |  | inconclusive: 25.1 µM [activator, single point]
NC(=O)CC[C@H](NC(=O)c1ccc(F)cc1)C(=O)OCC(=O)Nc1ccc(N2CCOCC2)cc1 |  | inconclusive: 25.1 µM [inhibitor, single point]
O=C(NC1CCCCC1)c1ccc2c(c1)N(Cc1ccc(Cl)cc1)C(=O)c1ccccc1S2(=O)=O |  | inconclusive: 39.8 µM [inhibitor, single point]
COc1ccc(OC)c(NC(=O)CN2C(=O)CCc3cc(S(=O)(=O)N4CCCCC4)ccc32)c1 |  | inconclusive: 39.8 µM [activator, single point]
COc1cc(NC(=O)c2cc3c(=O)n(Cc4cccs4)ccc3nc2C)cc(OC)c1OC |  | inconclusive: 31.6 µM [activator, single point]
O=C(CC1NCCNC1=O)Nc1ccc(Cl)c(Cl)c1 (stereo unspecified) | inactive: -12% | 
COc1ccccc1NC(=O)CSc1oc(-c2cccs2)nc1S(=O)(=O)c1ccccc1 |  | inconclusive: 39.8 µM [inhibitor, single point]
Cc1ccc(CN2C(=O)C3(c4ccccc42)N(c2cccc(C(F)(F)F)c2)C(=O)CS3(=O)=O)cc1 (stereo unspecified) |  | active: 12.6 µM
COc1cc(OC)c(OC)cc1/C=N/N(C)c1ccccc1 |  | inconclusive: 39.8 µM [activator, single point]
Cc1nnc(NCc2ccccc2)c2c1nnn2Cc1ccc(F)cc1 | inactive: 10.1% | 
O=[N+]([O-])c1ccc(C(c2sc3nc(-c4ccco4)nn3c2O)N2CCN(c3cccc(Cl)c3)CC2)cc1 (stereo unspecified) |  | inconclusive: 31.6 µM [inhibitor, single point]
C#CCn1c(=NC(=O)c2cccs2)sc2cccc(OC)c21 |  | inconclusive: 20 µM [inhibitor, partial curve]
COc1ccc(-c2nc3ccccc3o2)cc1NC(=O)COc1ccc(C(C)(C)C)cc1 |  | inconclusive: 15.8 µM [inhibitor, partial curve]
Cc1ccccc1OC(=O)CSc1nnc(-c2cccs2)o1 | inactive: 1.27% | 
O=C(NCC1CCCO1)/C(=C\c1ccco1)NC(=O)c1ccccc1 (stereo unspecified) | inactive: -0.97% | 
CN(C)CCn1c2c(c(SCC(=O)Nc3ccc(F)cc3F)nc1=O)CCC2 | inactive: -0.848% | 
CCc1ccc(NC(=O)CSc2nc3n[nH]c(C)c3c(=N)n2-c2cccc(OC)c2)cc1 |  | active: 12.6 µM
CCOc1cc(/C=N/N=C(\N)c2nonc2N)cc(Br)c1OCc1cccc2ccccc12 |  | active: 6.31 µM
CN(C)C=Nc1ncc2c3ccccc3n(Cc3ccccc3)c2c1C#N |  | inconclusive: 39.8 µM [activator, single point]

SMILES | max response, negative = inhibition | Potency
Cc1ccsc1/C=N/Nc1nc(Cl)c(Cl)cc1Cl |  | inconclusive: 31.6 µM [inhibitor, single point]
CCC1CCCCN1C(=O)C1CC(c2cc(Cl)c(OC)cc2OC)=NO1 (stereo unspecified) |  | inconclusive: 25.1 µM [activator, single point]
Cc1ccc(-c2nnn3c2nc(NCC(C)c2ccccc2)c2ccccc23)cc1 (stereo unspecified) |  | active: 5.01 µM
N=C1C(=O)OCC1c1cc(Cl)ccc1NC(=O)Nc1ccccc1 (stereo unspecified) |  | inconclusive: 25.1 µM [inhibitor, single point]
Cn1c(-n2cccc2)c(-c2c(-c3ccccc3)[nH]c3c2c(=O)[nH]c(=O)n3C)c(=O)[nH]c1=O | inactive: 21.4% | 
Cc1ccc(C)c(NC(=O)Cn2c(=O)n(CC3CCCO3)c(=O)c3ccccc32)c1 (stereo unspecified) | inactive: -0.176% | 
O=C(C[n+]1cc(-c2ccc(F)cc2)n2c1CCC2)Nc1nc(-c2ccccc2)cs1 |  | inconclusive: 12.6 µM [inhibitor, partial curve]
O=S(=O)(NCCc1ccccc1)c1ccc(S(=O)(=O)N2CCCCC2)cc1 |  | inconclusive: 31.6 µM [inhibitor, single point]
COc1cccc(/C=N/n2c(N)c(S(=O)(=O)c3cccs3)c3nc4ccccc4nc32)c1OC |  | inconclusive: 31.6 µM [inhibitor, single point]
Cc1cc(C)nc(-n2nc(C)c3c2N(C)C(=O)CC3c2ccc(Cl)cc2)n1 (stereo unspecified) |  | inconclusive: 39.8 µM [activator, single point]
Cc1ccc(CN2COc3ccc4c(-c5ccccc5)cc(=O)oc4c3C2)cc1 |  | inconclusive: 39.8 µM [inhibitor, single point]
COC(=O)c1cc(OC)c(OC)cc1NC(=O)CSc1ccc(C)cc1 |  | inconclusive: 31.6 µM [activator, single point]
COc1cc(NC(=O)CSc2nc(-c3ccco3)cc(C(F)(F)F)n2)cc(OC)c1OC | inactive: 9% | 
COc1ccccc1NC(=O)CN1C(=O)C2(SCC(=O)N2c2ccc(F)c(F)c2)c2ccccc21 (stereo unspecified) |  | active: 15.8 µM
CCN1C(=O)/C(=C/c2nc3ccccc3c(=O)n2-c2ccccc2)c2ccccc21 |  | inconclusive: 31.6 µM [activator, single point]
Cc1cccc(OCc2ccc(-c3nc(C#N)c(NCc4cccnc4)o3)o2)c1 |  | inconclusive: 39.8 µM [activator, single point]
CCOC(=O)c1c(C)[nH]c(C(=O)CSc2ccc(Cl)cc2)c1C |  | inconclusive: 39.8 µM [inhibitor, single point]
CC(=O)c1ccc(N2CCN(C(=O)C3(S(=O)(=O)c4ccc(Cl)cc4)CC3)CC2)cc1 |  | inconclusive: 39.8 µM [activator, single point]
COc1ccccc1C(=O)Nc1nc(-c2cccs2)c(NC(C)=O)s1 |  | inconclusive: 39.8 µM [inhibitor, single point]
